# Assay results from PubChem BioAssay (Tox21).
# Where “and” joins values, the source holds several entries; their conditions need not be identical. Equal entries are not always repeated. More than one record can exist for a structure, and the calls need not agree. Calls of active or inactive are those of the source. Unless noted, the call rests on the fitted dose curve; in most records, active means well fitted curve in the direction sought with a large enough effect in the repeat runs; inconclusive means weak or mixed curves; inactive means no such curve, though single readings can be large; an effect the other way counts as inactive or inconclusive.
# Legend:
# [1] = qHTS assay for identifying genotoxic compounds that show differential cytotoxicity against isogenic chicken DT40 cell lines with known DNA damage response pathways - Rev3 mutant cell line (AID 743014); conditions: chicken DT40 Rev3-/- viability, CellTiter-Glo, 40 h; activity, negative = cytotoxicity: at 68.4 µM (top of the series); further: nearly all actives have a fitted effect of over 55% in size; further: potency means the concentration at half of the fitted maximal effect
# [2] = qHTS assay for identifying genotoxic compounds that show differential cytotoxicity against isogenic chicken DT40 cell lines with known DNA damage response pathways - Rad54/Ku70 mutant cell line (AID 743015); conditions: DT40 Rad54/Ku70 mutant viability, CellTiter-Glo, 40 h; activity change, negative = cytotoxicity: at 66.8 µM (top of the series); further: nearly all actives have a fitted effect of over 60% in size; further: potency means the concentration at half of the fitted maximal effect; on activity change, negative = cytotoxicity: on the % scale 0 is the no-effect control and ±100 the full control effect
# [3] = qHTS assay to identify small molecule antagonists of the thyroid receptor (TR) signaling pathway - cell viability counter screen (AID 743064); conditions: GH3.TRE-Luc viability, CellTiter-Fluor, 24 h; activity change, negative = cytotoxic: at 70.3 µM (top of the series) unless noted; further: nearly all actives have a fitted effect of over 50% in size; further: potency means the concentration at half of the fitted maximal effect
# Summary of the method: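 In-well cytotoxicity read by CellTiter-Fluor (30 min, 37 C) following 23.5 h exposure of GH3 cells bearing a TRE-luciferase sensor. Compounds were added alongside 1 nM (final) T3 to drive TR transactivation.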
# [4] = qHTS assay to identify small molecule antagonists of the estrogen receptor alpha (ER-alpha) signaling pathway - cell viability counter screen (AID 743074; calls by dose curve; further: nearly all actives have a fitted effect of over 45% in size; further: potency means the concentration at half of the fitted maximal effect); conditions: ERalpha-bla HEK293 viability, CellTiter-Glo luminescence, 18 h; series mostly up to 69.4 µM
# [5] = biological target: Estrogen receptor (Homo sapiens) (UniProt P03372); experiment: qHTS assay to identify small molecule agonists of the estrogen receptor alpha (ER-alpha) signaling pathway (AID 743075; calls by dose curve; further: potency means the concentration at half of the fitted maximal effect; on activation: on the % scale 0 is the no-effect control and ±100 the full control effect); conditions: HEK293 ER-alpha-UAS-bla, beta-lactamase FRET ratio, 18 h; series mostly up to 70.1 µM
# Sequence of UniProt P03372 (P03372 whole entry, looked up): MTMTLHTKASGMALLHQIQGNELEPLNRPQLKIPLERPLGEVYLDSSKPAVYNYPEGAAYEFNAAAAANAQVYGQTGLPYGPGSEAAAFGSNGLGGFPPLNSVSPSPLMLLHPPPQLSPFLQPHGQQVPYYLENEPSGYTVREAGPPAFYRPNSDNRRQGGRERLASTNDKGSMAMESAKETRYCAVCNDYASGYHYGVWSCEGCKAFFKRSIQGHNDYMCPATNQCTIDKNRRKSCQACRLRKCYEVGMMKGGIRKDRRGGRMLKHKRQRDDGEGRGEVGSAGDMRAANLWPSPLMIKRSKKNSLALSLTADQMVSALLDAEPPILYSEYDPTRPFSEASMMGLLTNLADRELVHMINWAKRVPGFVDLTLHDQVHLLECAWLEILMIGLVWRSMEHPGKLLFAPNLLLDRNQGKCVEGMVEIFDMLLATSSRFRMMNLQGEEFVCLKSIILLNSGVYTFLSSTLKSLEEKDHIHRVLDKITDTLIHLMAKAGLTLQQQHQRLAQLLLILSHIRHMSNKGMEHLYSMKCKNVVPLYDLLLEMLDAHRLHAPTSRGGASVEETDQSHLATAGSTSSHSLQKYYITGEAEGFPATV
# [6] = biological target: Androgen receptor (Homo sapiens) (UniProt P10275); experiment: qHTS assay to identify small molecule antagonists of the androgen receptor (AR) signaling pathway (AID 743035; active means well fitted inhibition curve with a large enough effect in the signal ratio in the repeat runs, not every such curve was filed as active; inconclusive means weak or mixed curves, or effect the other way; inactive means no such curve, though single readings can be large or run the other way; the % refers to the signal ratio; further: on the % scale 0 is the no-effect control and ±100 the full control effect); conditions: HEK293 AR-UAS-bla, R1881-stimulated, beta-lactamase FRET, 16 h; activity change, negative = inhibition: at 58.5 µM (top of the series) unless noted
# Sequence of UniProt P10275 (P10275 whole entry, looked up): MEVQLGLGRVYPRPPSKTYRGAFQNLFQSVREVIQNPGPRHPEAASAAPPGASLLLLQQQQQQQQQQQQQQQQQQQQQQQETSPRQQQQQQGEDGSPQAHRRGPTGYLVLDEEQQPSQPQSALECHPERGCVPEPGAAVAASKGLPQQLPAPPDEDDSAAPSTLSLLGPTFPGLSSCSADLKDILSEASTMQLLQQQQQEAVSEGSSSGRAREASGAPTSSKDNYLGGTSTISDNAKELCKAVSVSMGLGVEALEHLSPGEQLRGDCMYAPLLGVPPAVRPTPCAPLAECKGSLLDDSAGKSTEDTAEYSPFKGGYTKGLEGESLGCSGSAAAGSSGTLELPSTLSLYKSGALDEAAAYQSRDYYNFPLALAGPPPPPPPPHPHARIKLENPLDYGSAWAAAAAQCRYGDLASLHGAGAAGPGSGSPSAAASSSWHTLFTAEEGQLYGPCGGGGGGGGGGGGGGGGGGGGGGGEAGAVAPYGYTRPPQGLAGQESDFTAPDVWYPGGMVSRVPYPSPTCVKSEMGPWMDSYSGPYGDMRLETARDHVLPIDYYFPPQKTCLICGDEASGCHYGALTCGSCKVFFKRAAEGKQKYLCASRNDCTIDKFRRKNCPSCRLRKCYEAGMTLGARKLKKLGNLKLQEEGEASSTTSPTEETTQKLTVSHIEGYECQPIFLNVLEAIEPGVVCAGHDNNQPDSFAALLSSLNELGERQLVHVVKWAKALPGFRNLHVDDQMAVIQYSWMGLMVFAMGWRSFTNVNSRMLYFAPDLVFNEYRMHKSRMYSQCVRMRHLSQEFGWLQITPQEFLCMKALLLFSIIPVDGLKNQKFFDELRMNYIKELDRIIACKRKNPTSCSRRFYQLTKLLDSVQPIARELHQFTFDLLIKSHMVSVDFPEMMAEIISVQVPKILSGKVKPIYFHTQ
# Summary of the method: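 Reporter HEK293 cells were exposed to compounds and R1881 overnight (16 h, 37C); beta-lactamase activity was then quantified by FRET fluorescence.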
# [7] = biological target: Androgen receptor (Homo sapiens) (UniProt P10275); experiment: qHTS assay to identify small molecule antagonists of the androgen receptor (AR) signaling pathway using the MDA cell line (AID 743042; further: potency means the concentration at half of the fitted maximal effect; nearly all actives have a fitted effect of over 55% in size); conditions: MDA-kb2 AR-luc, MMTV luciferase, R1881 antagonist, 16 h; series mostly up to 70.3 µM
# Summary of the method: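 Antagonist mode: compounds plus R1881 agonist added to MDA-kb2 AR-luc cells, incubated 16 h at 37C. Luciferase reporter luminescence quantified, with multiplexed CellTiter-Fluor readout for cell viability.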
# [8] = biological target: Estrogen receptor (Homo sapiens) (UniProt P03372); experiment: qHTS assay to identify small molecule antagonists of the estrogen receptor alpha (ER-alpha) signaling pathway (AID 743069; active means well fitted curve in the direction sought with a large enough effect in the signal ratio in the repeat runs, not every such curve was filed as active; inconclusive means weak or mixed curves, or effect the other way; inactive means no such curve, though single readings can be large or run the other way; the % refers to the signal ratio; further: potency means the concentration at half of the fitted maximal effect); conditions: HEK293 ER-alpha-UAS-bla, beta-lactamase ratio, antagonist mode; activity, negative = inhibition: at 69.4 µM (top of the series) unless noted
# Summary of the method: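 Fluorescence intensity from a beta-lactamase FRET substrate served as the read-out. Cells: HEK293 with stably integrated ER-alpha-UAS-bla reporter. Agonist 17beta-estradiol was co-added with compounds; incubation 18 hr at 37C, substrate 2 hr at room temperature.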
# [9] = biological target: Estrogen receptor (Homo sapiens) (UniProt P03372); experiment: qHTS assay to identify small molecule agonists of the estrogen receptor alpha (ER-alpha) signaling pathway using the BG1 cell line (AID 743079); conditions: BG1Luc4E2 cells, ERE-luciferase agonist, 22 h; activation: at 70.3 µM (top of the series) unless noted; further: nearly all actives have a fitted effect of over 20% in size; further: potency means the concentration at half of the fitted maximal effect
# [10] = qHTS assay to identify small molecule antagonists of the estrogen receptor alpha (ER-alpha) signaling pathway using the BG1 cell line - cell viability counter screen (AID 743081); conditions: BG1Luc4E2 viability, CellTiter-Fluor, 22 h; activity change, negative = cytotoxicity: at 70.3 µM (top of the series) unless noted;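 further: compound given together with 17beta-estradiol as the ER stimulus; nearly all actives have a fitted effect of over 45% in size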; further: potency means the concentration at half of the fitted maximal effect
# [11] = qHTS assay to identify small molecule antagonists of the androgen receptor (AR) signaling pathway - cell viability counter screen (AID 743033; further: nearly all actives have a fitted effect of over 45% in size; further: potency means the concentration at half of the fitted maximal effect); conditions: AR-bla HEK293 viability, CellTiter-Glo luminescence, 16 h; activity change, negative = cytotoxicity: at 58.5 µM (top of the series) unless noted
# [12] = qHTS assay to identify small molecule antagonists of the thyroid receptor (TR) signaling pathway (AID 743065); conditions: GH3.TRE-Luc, T3-stimulated luciferase inhibition, 23.5 h; series mostly up to 70.3 µM; further: nearly all actives have a fitted effect of over 55% in size; further: potency means the concentration at half of the fitted maximal effect
# Summary of the method: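 Antagonism measured as loss of luciferase signal in GH3 cells stably carrying a TRE-luciferase reporter, co-treated with compound and T3 (1 nM final) for 23.5 h at 37 C. Viability was read in the same well by CellTiter-Fluor.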
# [13] = system: thyroid hormone receptor (rat, GH3 cells); experiment: qHTS assay to identify small molecule agonists of the thyroid receptor (TR) signaling pathway (AID 743066; calls by dose curve; further: on the % scale 0 is the no-effect control and ±100 the full control effect); conditions: GH3.TRE-Luc cells, TR agonist luciferase, 24 h; activation: at 83.9 µM (top of the series) unless noted
# [14] = qHTS assay to identify small molecule antagonists of the androgen receptor (AR) signaling pathway using the MDA cell line - cell viability counter screen (AID 743041; further: nearly all actives have a fitted effect of over 45% in size; further: potency means the concentration at half of the fitted maximal effect); conditions: MDA-kb2 viability, CellTiter-Fluor, 16 h, cells co-treated with R1881 androgen agonist; viability change, negative = cytotoxic: at 70.3 µM (top of the series) unless noted
# Summary of the method: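 Using the breast carcinoma line MDA-kb2 AR-luc, test chemicals were co-incubated with R1881 for 16 h; CellTiter-Fluor reagent, added at 15.5 h, provided a fluorescence measure of live cells.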
# [15] = qHTS assay to identify small molecule antagonists of the estrogen receptor alpha (ER-alpha) signaling pathway using the BG1 cell line (AID 743080; calls by dose curve;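 further: BG1 cells stimulated with 17beta-estradiol alongside compound; nearly all actives have a fitted effect of over 25% in size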; further: potency means the concentration at half of the fitted maximal effect); conditions: BG1Luc4E2 ERE-luciferase antagonist mode, luminescence; activity change, negative = inhibition: at 70.3 µM (top of the series) unless noted
# Summary of the method: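 Luminescence from a 4×ERE-luciferase reporter in BG1-Luc-4E2 cells served as read-out. Cells, pre-cultured 5 days in stripped-serum phenol-red-free medium, were exposed to compound with 17beta-estradiol co-stimulation for 21.5 h at 37 C.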
# Aromatase (Homo sapiens) = Aromatase (Homo sapiens) (UniProt P11511); experiment: qHTS assay to identify aromatase inhibitors (AID 743083); conditions: MCF-7 aro ERE, testosterone-driven ERE luciferase, 24 h; activity, negative = inhibition: at 70.3 µM (top of the series); further: potency means the concentration at half of the fitted maximal effect; nearly all actives have a fitted effect of over 55% in size
# Sequence of UniProt P11511 (P11511 whole entry, looked up): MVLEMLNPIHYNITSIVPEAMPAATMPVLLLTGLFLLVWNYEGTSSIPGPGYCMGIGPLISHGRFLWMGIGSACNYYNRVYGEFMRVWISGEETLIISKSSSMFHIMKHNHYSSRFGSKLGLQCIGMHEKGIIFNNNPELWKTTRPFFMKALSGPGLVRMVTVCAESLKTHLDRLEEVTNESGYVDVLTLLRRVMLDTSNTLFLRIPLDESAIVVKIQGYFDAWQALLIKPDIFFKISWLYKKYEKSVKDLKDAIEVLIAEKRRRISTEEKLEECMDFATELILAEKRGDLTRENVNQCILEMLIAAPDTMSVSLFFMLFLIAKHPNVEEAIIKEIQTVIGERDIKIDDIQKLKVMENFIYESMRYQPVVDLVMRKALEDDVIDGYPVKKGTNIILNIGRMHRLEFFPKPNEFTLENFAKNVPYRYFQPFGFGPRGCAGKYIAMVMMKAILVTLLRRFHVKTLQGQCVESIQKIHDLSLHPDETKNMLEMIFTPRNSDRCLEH
# Tags describe the fitted curve by direction and shape or compound fluorescence and quenching.
structure (smiles),measurement,setting,value
O=C(O)Cn1c(C(=O)Nc2nc(-c3ccccc3Cl)cs2)cc2ccccc21,Potency,[1],"inconclusive: 18.8 µM [rising, partial curve, poor fit]"
same,Potency,[2],inactive
same,Potency,[3],"inconclusive: 16.8 µM [cytotoxic, full curve, poor fit]"
same,Potency,[4],"inconclusive: 0.756 µM [rising, full curve, poor fit]"
same,Potency,[5],inactive
CC(=O)Oc1ccc(C(c2ccc(OC(C)=O)cc2)c2ccccn2)cc1,Potency,[1],"inconclusive: 33.5 µM [cytotoxic, single point] and inconclusive: 21.6 µM [cytotoxic, partial curve]"
same,Potency,[2],"inconclusive: 33.5 µM [cytotoxic, single point] and inconclusive: 24.2 µM [cytotoxic, single point]"
same,"activity change, negative = inhibition",[6],inconclusive: -44.3%
same,Potency,[7],"inconclusive: 0.422 µM [inhibitor, full curve]"
same,Potency,[8],active: 19 µM [inconclusive] and active: 24.4 µM [inconclusive]
same,Potency,[5],"inconclusive: 5.46 µM [falling, single point]"
same,Potency,[9],"inconclusive: 531 nM [inhibitor, full curve] and inconclusive: 430 nM [inhibitor, full curve]"
same,Potency,[10],active: 2.11 µM and active: 1.92 µM
COCCc1ccc(OCC(O)CNC(C)C)cc1 (centres undefined),Potency,[1],"inconclusive: 33.5 µM [cytotoxic, single point] and inconclusive: 26.6 µM [cytotoxic, partial curve, poor fit]"
same,Potency,[2],"inconclusive: 33.5 µM [cytotoxic, single point]"
CC(=O)c1ccccn1,Potency,[1],inactive
same,Potency,[2],inactive
O=C=Nc1ccc(Cc2ccc(N=C=O)cc2)cc1,Potency,[1],active: 10.7 µM and inactive
same,Potency,[2],"inconclusive: 26.8 µM [cytotoxic, single point]"
Nc1c(NC/C=C\COc2cc(CN3CCCCC3)ccn2)c(=O)c1=O,Potency,[1],inactive
same,Potency,[3],active: 23.7 µM
same,Potency,[10],"inconclusive: 13.3 µM [cytotoxic, partial curve]"
Cc1ccc(C=O)s1,Potency,[1],inactive
same,Potency,[3],"inconclusive: 24.3 µM [rising, partial curve]"
same,Potency,[10],inactive
CCCCCC[C@@H](O)C/C=C\CCCCCCCC(=O)OCC(O)CO (some centres undefined),Potency,[1],"inconclusive: 27.3 µM [cytotoxic, partial curve, poor fit]"
same,Potency,[11],inactive
same,Potency,[8],"inconclusive: 38.9 µM [rising, partial curve, poor fit]"
CCCCC,Potency,[1],"inconclusive: 33.5 µM [rising, partial curve, poor fit]"
same,Potency,[3],inactive
same,Potency,[12],inactive
same,Potency,[13],inactive
same,Potency,[10],inactive
CC(=O)CC(C)(C)C1CCCCC1,Potency,[1],"inconclusive: 61.1 µM [cytotoxic, partial curve, poor fit]"
same,Potency,[11],inactive
same,Potency,[3],inactive
same,Potency,[9],inactive
Cc1cccc(C)c1NC(=O)CN1CCN(CCCC(c2ccc(F)cc2)c2ccc(F)cc2)CC1,Potency,[1],active: 5.69 µM
same,Potency,[3],"inconclusive: 11.4 µM [cytotoxic, partial curve, poor fit]"
same,Potency,[12],inconclusive: 12.7 µM [inhibitor]
same,activation,[13],inconclusive: -9.62% [phenotype inactive] [at 39.4 µM]
NS(=O)(=O)O,Potency,[1],"inconclusive: 68.6 µM [cytotoxic, partial curve, poor fit]"
same,Potency,[3],"inconclusive: 70 µM [rising, single point]"
same,Potency,[12],inactive
same,Potency,[4],"inactive and inconclusive: 22.3 µM [cytotoxic, single point]"
CCCCOc1ccc(C(=O)CCN2CCCCC2)cc1,Potency,[1],active: 1.27 µM
same,Potency,[11],"inconclusive: 0.0016 µM [cytotoxic, full curve, poor fit]"
same,Potency,[14],active: 10.6 µM
same,Potency,[3],active: 5.07 µM
same,Potency,[12],active: 3.59 µM
same,activation,[13],inconclusive: -7.79% [phenotype inactive] [at 39.4 µM]
same,Potency,[9],active: 4.52 µM
same,Potency,[15],"inconclusive: 9.02 µM [rising, partial curve]"
CC(C(=O)O)c1ccc(-c2ccccc2)c(F)c1 (centres undefined),Potency,[1],"inconclusive: 12.7 µM [rising, partial curve, poor fit]"
same,Potency,[12],"inconclusive: 68.6 µM [inhibitor, partial curve, poor fit]"
Nc1ccccc1Nc1ccccc1,Potency,[1],active: 8.66 µM
same,Potency,[14],inactive
same,Potency,[12],active: 12.2 µM
same,activation,[13],inconclusive: -8.25% [phenotype inactive]
same,Potency,Aromatase (Homo sapiens),"inconclusive: 77.2 µM [inhibitor, single point]"
C[C@H](CCC(=O)O)[C@H]1CC[C@H]2[C@@H]3[C@H](O)C[C@@H]4C[C@H](O)CC[C@]4(C)[C@H]3CC[C@]12C,Potency,[1],inactive
same,Potency,[11],"inconclusive: 0.0023 µM [cytotoxic, full curve, poor fit]"
same,Potency,[8],inconclusive: 49.1 µM [fluorescent]
same,Potency,[15],inactive
same,Potency,[10],inactive
CC(C)(C)C(=O)c1ccccc1,Potency,[1],inactive
same,Potency,[3],"inconclusive: 27.3 µM [rising, single point]"
same,Potency,[5],"inconclusive: 61.6 µM [falling, single point]"
same,Potency,[9],active: 61.1 µM
